Measurements reported in publication PMC12820563.
This is one part of the list. The list includes weakly bound sequences.

These sequences were tested against T1, MBP-FoxP3dN (UniProt Q99JB6) (assay: PD-seq (MBP pull-down with sequencing)). Details: 20 mM Tris-HCl pH 7.5, 100 mM NaCl, 1.5 mM MgCl2, 0.4 uM protein, 0.1 uM dsDNA library, 30 min, room temperature, amylose pull-down; high values mean tight binding; double strand, one strand shown.
T1 sequence: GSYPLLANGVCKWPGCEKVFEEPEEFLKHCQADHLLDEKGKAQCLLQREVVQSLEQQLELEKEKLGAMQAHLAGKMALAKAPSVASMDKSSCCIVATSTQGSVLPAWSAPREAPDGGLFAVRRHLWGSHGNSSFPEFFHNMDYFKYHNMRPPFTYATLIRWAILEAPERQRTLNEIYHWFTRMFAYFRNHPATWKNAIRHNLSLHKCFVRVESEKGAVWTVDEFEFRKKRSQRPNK

Row | Sequence | binding signal (RPM ratio (pull-down/input))
1 | GATGATTGTTCTCCCAGCTGATGAATTCTTGGGGTCGAGTAAACAAATTTTCCTAATCTTTCTGTTCAAGCGCCATCTAC | 0.242
2 | GATGATTGTTCTCCCAGCTGATGAATTTACGACCTCGAGTAAACAAATTTTCCTAATCTTTCTGTTCAAGCGCCATCTAC | 0.481
3 | GATGATTGTTCTCCCAGCTGATGAATTGCTTCATTCGAGTAAACAAATTTTCCTAATCTTTCTGTTCAAGCGCCATCTAC | 0.551
4 | GATGATTGTTCTCCCAGCTGATGAATTCTTGAGTTCGAGTAAACAAATTTTCCTAATCTTTCTGTTCAAGCGCCATCTAC | 0.421
5 | GATGATTGTTCTCCCAGCTGATGAATTGGTCCGGTCGAGTAAACAAATTTTCCTAATCTTTCTGTTCAAGCGCCATCTAC | 0.214
6 | GATGATTGTTCTCCCAGCTGATGAATTTAAAAAGTCGAGTAAACAAATTTTCCTAATCTTTCTGTTCAAGCGCCATCTAC | 0.15
7 | GATGATTGTTCTCCCAGCTGATGAATTAAGGGCATCGAGTAAACAAATTTTCCTAATCTTTCTGTTCAAGCGCCATCTAC | 0.763
8 | GATGATTGTTCTCCCAGCTGATGAATTCAATACTTCGAGTAAACAAATTTTCCTAATCTTTCTGTTCAAGCGCCATCTAC | 0.447
9 | GATGATTGTTCTCCCAGCTGATGAATTAGCGGATTCGAGTAAACAAATTTTCCTAATCTTTCTGTTCAAGCGCCATCTAC | 0.301
10 | GATGATTGTTCTCCCAGCTGATGAATTGTGACATTCGAGTAAACAAATTTTCCTAATCTTTCTGTTCAAGCGCCATCTAC | 2.74
11 | GATGATTGTTCTCCCAGCTGATGAATTCAGGAAGTCGAGTAAACAAATTTTCCTAATCTTTCTGTTCAAGCGCCATCTAC | 0.172
12 | GATGATTGTTCTCCCAGCTGATGAATTTAGCTAGTCGAGTAAACAAATTTTCCTAATCTTTCTGTTCAAGCGCCATCTAC | 1.18
13 | GATGATTGTTCTCCCAGCTGATGAATTAAACTACTCGAGTAAACAAATTTTCCTAATCTTTCTGTTCAAGCGCCATCTAC | 0.437
14 | GATGATTGTTCTCCCAGCTGATGAATTTCCGCCTTCGAGTAAACAAATTTTCCTAATCTTTCTGTTCAAGCGCCATCTAC | 3.28
15 | GATGATTGTTCTCCCAGCTGATGAATTAGTTGAGTCGAGTAAACAAATTTTCCTAATCTTTCTGTTCAAGCGCCATCTAC | 1.25
16 | GATGATTGTTCTCCCAGCTGATGAATTCAGAGAGTCGAGTAAACAAATTTTCCTAATCTTTCTGTTCAAGCGCCATCTAC | 0.193
17 | GATGATTGTTCTCCCAGCTGATGAATTAAACCTGTCGAGTAAACAAATTTTCCTAATCTTTCTGTTCAAGCGCCATCTAC | 0.319
18 | GATGATTGTTCTCCCAGCTGATGAATTTTTTACATCGAGTAAACAAATTTTCCTAATCTTTCTGTTCAAGCGCCATCTAC | 0.25
19 | GATGATTGTTCTCCCAGCTGATGAATTAATCGGTTCGAGTAAACAAATTTTCCTAATCTTTCTGTTCAAGCGCCATCTAC | 0.375
20 | GATGATTGTTCTCCCAGCTGATGAATTTCCGACTTCGAGTAAACAAATTTTCCTAATCTTTCTGTTCAAGCGCCATCTAC | 0.488
21 | GATGATTGTTCTCCCAGCTGATGAATTATGTCAGTCGAGTAAACAAATTTTCCTAATCTTTCTGTTCAAGCGCCATCTAC | 1.2

Row | Sequence | binding signal (RPM ratio (pull-down/input))
22 | GATGATTGTTCTCCCAGCTGATGAATTTCAGGGATCGAGTAAACAAATTTTCCTAATCTTTCTGTTCAAGCGCCATCTAC | 0.202
23 | GATGATTGTTCTCCCAGCTGATGAATTGAGTATTTCGAGTAAACAAATTTTCCTAATCTTTCTGTTCAAGCGCCATCTAC | 1.95
24 | GATGATTGTTCTCCCAGCTGATGAATTTACTCGGTCGAGTAAACAAATTTTCCTAATCTTTCTGTTCAAGCGCCATCTAC | 0.312
25 | GATGATTGTTCTCCCAGCTGATGAATTGTACCCCTCGAGTAAACAAATTTTCCTAATCTTTCTGTTCAAGCGCCATCTAC | 0.423
26 | GATGATTGTTCTCCCAGCTGATGAATTAGATTCTTCGAGTAAACAAATTTTCCTAATCTTTCTGTTCAAGCGCCATCTAC | 0.655
27 | GATGATTGTTCTCCCAGCTGATGAATTGTTGACATCGAGTAAACAAATTTTCCTAATCTTTCTGTTCAAGCGCCATCTAC | 5.72
28 | GATGATTGTTCTCCCAGCTGATGAATTTCTCACGTCGAGTAAACAAATTTTCCTAATCTTTCTGTTCAAGCGCCATCTAC | 0.298
29 | GATGATTGTTCTCCCAGCTGATGAATTTATCAAATCGAGTAAACAAATTTTCCTAATCTTTCTGTTCAAGCGCCATCTAC | 0.456
30 | GATGATTGTTCTCCCAGCTGATGAATTCGATCGCTCGAGTAAACAAATTTTCCTAATCTTTCTGTTCAAGCGCCATCTAC | 0.339
31 | GATGATTGTTCTCCCAGCTGATGAATTATCGTCTTCGAGTAAACAAATTTTCCTAATCTTTCTGTTCAAGCGCCATCTAC | 0.527
32 | GATGATTGTTCTCCCAGCTGATGAATTGATTCGGTCGAGTAAACAAATTTTCCTAATCTTTCTGTTCAAGCGCCATCTAC | 0.336
33 | GATGATTGTTCTCCCAGCTGATGAATTCTTAGCGTCGAGTAAACAAATTTTCCTAATCTTTCTGTTCAAGCGCCATCTAC | 0.407
34 | GATGATTGTTCTCCCAGCTGATGAATTTGACACTTCGAGTAAACAAATTTTCCTAATCTTTCTGTTCAAGCGCCATCTAC | 1.55
35 | GATGATTGTTCTCCCAGCTGATGAATTACGAGGCTCGAGTAAACAAATTTTCCTAATCTTTCTGTTCAAGCGCCATCTAC | 0.562
36 | GATGATTGTTCTCCCAGCTGATGAATTTTTCCCGTCGAGTAAACAAATTTTCCTAATCTTTCTGTTCAAGCGCCATCTAC | 0.171
37 | GATGATTGTTCTCCCAGCTGATGAATTATGAAAGTCGAGTAAACAAATTTTCCTAATCTTTCTGTTCAAGCGCCATCTAC | 0.265
38 | GATGATTGTTCTCCCAGCTGATGAATTGGTCCCATCGAGTAAACAAATTTTCCTAATCTTTCTGTTCAAGCGCCATCTAC | 0.435
39 | GATGATTGTTCTCCCAGCTGATGAATTCGCTAAATCGAGTAAACAAATTTTCCTAATCTTTCTGTTCAAGCGCCATCTAC | 0.218
40 | GATGATTGTTCTCCCAGCTGATGAATTGAATCTCTCGAGTAAACAAATTTTCCTAATCTTTCTGTTCAAGCGCCATCTAC | 0.429
41 | GATGATTGTTCTCCCAGCTGATGAATTAATTGACTCGAGTAAACAAATTTTCCTAATCTTTCTGTTCAAGCGCCATCTAC | 2.9
42 | GATGATTGTTCTCCCAGCTGATGAATTAAACCGGTCGAGTAAACAAATTTTCCTAATCTTTCTGTTCAAGCGCCATCTAC | 0.248

Row | Sequence | binding signal (RPM ratio (pull-down/input))
43 | GATGATTGTTCTCCCAGCTGATGAATTCTGATGTTCGAGTAAACAAATTTTCCTAATCTTTCTGTTCAAGCGCCATCTAC | 2.93
44 | GATGATTGTTCTCCCAGCTGATGAATTCGTGCACTCGAGTAAACAAATTTTCCTAATCTTTCTGTTCAAGCGCCATCTAC | 0.773
45 | GATGATTGTTCTCCCAGCTGATGAATTGGCTTTCTCGAGTAAACAAATTTTCCTAATCTTTCTGTTCAAGCGCCATCTAC | 1.76
46 | GATGATTGTTCTCCCAGCTGATGAATTTTCTTTTTCGAGTAAACAAATTTTCCTAATCTTTCTGTTCAAGCGCCATCTAC | 0.645
47 | GATGATTGTTCTCCCAGCTGATGAATTACTAAGGTCGAGTAAACAAATTTTCCTAATCTTTCTGTTCAAGCGCCATCTAC | 0.254
48 | GATGATTGTTCTCCCAGCTGATGAATTATGTACGTCGAGTAAACAAATTTTCCTAATCTTTCTGTTCAAGCGCCATCTAC | 1.34
49 | GATGATTGTTCTCCCAGCTGATGAATTGGCCGGCTCGAGTAAACAAATTTTCCTAATCTTTCTGTTCAAGCGCCATCTAC | 0.201
50 | GATGATTGTTCTCCCAGCTGATGAATTACCAGTATCGAGTAAACAAATTTTCCTAATCTTTCTGTTCAAGCGCCATCTAC | 0.478
51 | GATGATTGTTCTCCCAGCTGATGAATTCGACCGCTCGAGTAAACAAATTTTCCTAATCTTTCTGTTCAAGCGCCATCTAC | 0.259
52 | GATGATTGTTCTCCCAGCTGATGAATTGCCAACCTCGAGTAAACAAATTTTCCTAATCTTTCTGTTCAAGCGCCATCTAC | 0.476
53 | GATGATTGTTCTCCCAGCTGATGAATTTGGCCAATCGAGTAAACAAATTTTCCTAATCTTTCTGTTCAAGCGCCATCTAC | 0.65
54 | GATGATTGTTCTCCCAGCTGATGAATTTCTGAGGTCGAGTAAACAAATTTTCCTAATCTTTCTGTTCAAGCGCCATCTAC | 0.165
55 | GATGATTGTTCTCCCAGCTGATGAATTTCATCTGTCGAGTAAACAAATTTTCCTAATCTTTCTGTTCAAGCGCCATCTAC | 0.411
56 | GATGATTGTTCTCCCAGCTGATGAATTTTTTGGATCGAGTAAACAAATTTTCCTAATCTTTCTGTTCAAGCGCCATCTAC | 0.192
57 | GATGATTGTTCTCCCAGCTGATGAATTACCTTGTTCGAGTAAACAAATTTTCCTAATCTTTCTGTTCAAGCGCCATCTAC | 0.403
58 | GATGATTGTTCTCCCAGCTGATGAATTGTAAACATCGAGTAAACAAATTTTCCTAATCTTTCTGTTCAAGCGCCATCTAC | 5.2
59 | GATGATTGTTCTCCCAGCTGATGAATTGTACAAGTCGAGTAAACAAATTTTCCTAATCTTTCTGTTCAAGCGCCATCTAC | 0.305
60 | GATGATTGTTCTCCCAGCTGATGAATTACTTAGTTCGAGTAAACAAATTTTCCTAATCTTTCTGTTCAAGCGCCATCTAC | 0.432
61 | GATGATTGTTCTCCCAGCTGATGAATTCGGTCTATCGAGTAAACAAATTTTCCTAATCTTTCTGTTCAAGCGCCATCTAC | 0.588
62 | GATGATTGTTCTCCCAGCTGATGAATTTCGAACCTCGAGTAAACAAATTTTCCTAATCTTTCTGTTCAAGCGCCATCTAC | 0.301
63 | GATGATTGTTCTCCCAGCTGATGAATTATGCACATCGAGTAAACAAATTTTCCTAATCTTTCTGTTCAAGCGCCATCTAC | 2.07
